Consider one molecule from patent US20040224408A1 (published 2004).

This experiment addresses T1, Glutathione S-transferase (GST) control protein (pGEX-2T) (UniProt P08515 = GST).
T1 construct: Negative control immobilized on glutathione sepharose; also called GST beads; immobilized GST alone
Put plainly: GST pull-down, immobilized GST control, in vitro translated 35S-labelled chemokine. As to the method: To confirm the interaction observed in yeast two-hybrid system, we performed in vitro GST pull down assays. THAP1, expressed as a GST-tagged fusion protein and immobilized on glutathione sepharose, was incubated with radiolabeled chemokines that were translated in vitro.
In vitro-translated chemokines were generated with the TNT-coupled reticulocyte lysate system (Promega, Madison, Wis., USA) using as templates pGBKT7-CCL21, -CCL19, -CXCL9, -CXCL10 and CXCL11 chemokine vectors (see Example 32) or pCMV-SPORT6-CCL5 plasmid (Image clone No. 4185200). In vitro-translated IFNγ cytokine was generated similarly using as template plasmid pGBKT7-IFNγ. A 25 μvolume of ³⁵S-labelled chemokine was incubated with immobilized GST-THAP1 or GST proteins overnight at 4° C., in the following binding buffer: 10 mM NaPO4 pH 8.0, 140 mM NaCl, 3 mM MgCl₂, 1 mM dithiothreitol (DTT), 0.05% NP40, and 0.2 mM phenylmethyl sulphonyl fluoride (PMSF), 1 mM Na vanadate, 50 mM β-glycerophosphate, 25 μg/ml chymotrypsine, 5 μg/ml aprotinin, and 10 μg/ml leupeptin. Beads were then washed 5 times in 1 ml binding buffer. Bound proteins were eluted with 2×Laemmli SDS-PAGE sample buffer, fractionated by 10% SDS-PAGE and visualized by fluorography using Amplify (Amersham Pharmacia Biotech). GST/THAP1 specifically bound to chemokines CCL21, CCL19, CCL5, CXCL9, CXCL10 and CXCL11 but not cytokine IFNγ (FIGS. 19 and 20). […]

B1: human chemokine IP10/CXCL10, mature form ([…]) (ligand)
chain: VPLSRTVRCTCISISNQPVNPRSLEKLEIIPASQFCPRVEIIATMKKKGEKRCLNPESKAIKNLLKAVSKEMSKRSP
notes: The range is stated on the GenBank entry; Tested as a Gal4-BD fusion (pGBKT7-CXCL10) and as in vitro translated 35S-labelled protein from that vector
With B1, the binding result is on record as “no binding”.
